Source: the supplement of paper PMC4967469
A lower IC50 marks a more sensitive line; fits outside the tested doses are given as limits. AUC, from the same fit, is the share of area under the viability curve across the 256-fold dose range; values near 1 show little effect. A top dose marked as inferred comes from the curve model; the source does not state it.

Each cell line was assayed with CCn1cc(-c2ccnc3[nH]c(-c4cccc(CN(C)C)c4)cc23)c(-c2ccc(NC(=O)N(C)C)cc2)n1 [GSK1070916] (assay: Viability of human cancer cell lines after 72 h of drug (GDSC screen)). Conditions: top dose inferred.
Method: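 Human cancer cell lines in 384-well plates, medium with 10% serum, drug for 72 h over a 256-fold dose range (nine 2-fold or five 4-fold steps up to the top dose). Adherent lines were fixed and stained with the nucleic acid dye Syto60, suspension lines read with resazurin; signal relative to control wells, capped at 0 and 100%. One two-parameter sigmoid per drug and line, fitted in a mixed model over all curves with the slope shared within a line.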
“RH-1 (rhabdomyosarcoma, adherent, top dose 2.56 µM)” was tested, and the AUC was 0.103 and the IC50 was 11.4 nM.
“SKN (uterus, adherent, top dose 2.56 µM)” was tested, and the AUC was 0.941 and the IC50 was over 2560 nM.
With “HT-1197 (bladder, adherent, top dose 2.56 µM)” the AUC was 0.983 and the IC50 was over 2560 nM.
“OVCAR-4 (ovary, adherent, top dose 2.56 µM)” gave an AUC of 0.919 and an IC50 of over 2560 nM.
“SW13 (adrenal gland, adherent, top dose 2.56 µM)” gave an AUC of 0.988 and an IC50 of over 2560 nM.
In the case of “COLO-800 (melanoma, adherent, top dose 2.56 µM)”, the AUC is reported as 0.878 and the IC50 is reported as 2460 nM.
With “HCC-56 (large intestine, adherent, top dose 2.56 µM)” the AUC was 0.753 and the IC50 was 874 nM.
With “NCI-H1648 (lung adenocarcinoma, adherent, top dose 2.56 µM)” the AUC was 0.973 and the IC50 was over 2560 nM.
“SW872 (soft tissue, adherent, top dose 2.56 µM)” was tested, and the AUC was 0.969 and the IC50 was over 2560 nM.
Work on “HuO-3N1 (osteosarcoma, adherent, top dose 2.56 µM)” yielded an AUC of 0.955 and an IC50 of over 2560 nM.
“YH-13 (glioma, adherent, top dose 2.56 µM)” showed an AUC of 0.968 and an IC50 of over 2560 nM.
With “LNCaP-Clone-FGC (prostate, adherent, top dose 2.56 µM)” the AUC was 0.932 and the IC50 was over 2560 nM.
Work on “DB (B-cell lymphoma, suspension, top dose 2.56 µM)” yielded an AUC of 0.938 and an IC50 of over 2560 nM.
In the case of “EJM (lymphoid neoplasm, semi-adherent, top dose 2.56 µM)”, the AUC is reported as 0.947 and the IC50 is reported as over 2560 nM.
“NCI-H1666 (lung adenocarcinoma, semi-adherent, top dose 2.56 µM)” gave an AUC of 0.953 and an IC50 of over 2560 nM.
In the case of “Caov-4 (ovary, adherent, top dose 2.56 µM)”, the AUC is reported as 0.902 and the IC50 is reported as over 2560 nM.
For “JVM-2 (lymphoid neoplasm, suspension, top dose 2.56 µM)”, the AUC was 0.908 and the IC50 was over 2560 nM.
With “NCI-H2087 (lung adenocarcinoma, semi-adherent, top dose 2.56 µM)” the AUC was 0.856 and the IC50 was 2310 nM.
With “SKG-IIIa (cervix, adherent, top dose 2.56 µM)” the AUC was 0.973 and the IC50 was over 2560 nM.
In the case of “CAL-85-1 (breast, adherent, top dose 2.56 µM)”, the AUC is reported as 0.893 and the IC50 is reported as over 2560 nM.
In the case of “WIL2-NS (lymphoid neoplasm, suspension, top dose 2.56 µM)”, the AUC is reported as 0.826 and the IC50 is reported as 1180 nM.
Cell Line “SCC-15 (head and neck, adherent, top dose 2.56 µM)” has an AUC of 0.941 and an IC50 of over 2560 nM.
For “SW982 (soft tissue, adherent, top dose 2.56 µM)”, the AUC was 0.866 and the IC50 was 2410 nM.
For “SW1271 (small cell lung carcinoma, adherent, top dose 2.56 µM)”, the AUC was 0.953 and the IC50 was over 2560 nM.
Work on “UMC-11 (lung carcinoid, adherent, top dose 2.56 µM)” yielded an AUC of 0.94 and an IC50 of over 2560 nM.
“RVH-421 (melanoma, adherent, top dose 2.56 µM)” showed an AUC of 0.894 and an IC50 of over 2560 nM.
“COLO-320-HSR (large intestine, suspension, top dose 2.56 µM)” was tested, and the AUC was 0.928 and the IC50 was over 2560 nM.
“SW948 (large intestine, adherent, top dose 2.56 µM)” gave an AUC of 0.806 and an IC50 of 2110 nM.
With “BICR78 (head and neck, adherent, top dose 2.56 µM)” the AUC was 0.98 and the IC50 was over 2560 nM.
Work on “huH-1 (liver, adherent, top dose 2.56 µM)” yielded an AUC of 0.984 and an IC50 of over 2560 nM.
In the case of “D-247MG (glioma, adherent, top dose 2.56 µM)”, the AUC is reported as 0.914 and the IC50 is reported as over 2560 nM.
“H2731 (mesothelioma, adherent, top dose 2.56 µM)” gave an AUC of 0.844 and an IC50 of 2240 nM.
Cell Line “WM793B (melanoma, adherent, top dose 2.56 µM)” has an AUC of 0.917 and an IC50 of over 2560 nM.
“JURL-MK1 (chronic myeloid leukaemia, suspension, top dose 2.56 µM)” was tested, and the AUC was 0.819 and the IC50 was 1450 nM.
In the case of “HCC2157 (breast, suspension, top dose 2.56 µM)”, the AUC is reported as 0.967 and the IC50 is reported as over 2560 nM.
For “KALS-1 (glioma, adherent, top dose 2.56 µM)”, the AUC was 0.92 and the IC50 was over 2560 nM.
For “HT-1080 (fibrosarcoma, adherent, top dose 2.56 µM)”, the AUC was 0.958 and the IC50 was over 2560 nM.
“MZ7-mel (melanoma, adherent, top dose 2.56 µM)” gave an AUC of 0.967 and an IC50 of over 2560 nM.
Cell Line “HDQ-P1 (breast, adherent, top dose 2.56 µM)” has an AUC of 0.962 and an IC50 of over 2560 nM.
“Hs766T (pancreas, adherent, top dose 2.56 µM)” showed an AUC of 0.984 and an IC50 of over 2560 nM.
